Measurements reported in PubChem BioAssay AID1963576 (National Center for Advancing Translational Sciences (NCATS), 2024).
The campaign covered roughly 46,000 compounds. About 60 (0.1%) were called active. Not shown: some 3% with an inconclusive outcome. The call rests on the fitted dose curve; in most records, active means well fitted inhibition curve with a large enough effect; inconclusive means small, poorly fitted or top-dose-only effect; inactive means no such curve, though single readings can be large or run the other way. This is one part of the list.

Experiment: Primary qHTS assay for Inhibitors of ovarian cancer metastasis using an organotypic tumor microenvironment (TME) model. Further: nearly all actives have a fitted effect of over 65% in size.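 On activity change, negative = inhibition: plate controls were DMSO wells for no effect and tomatine positive control wells for full effect.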
Conditions: SKOV3ip1-GFP adhesion/invasion on 3D omental model, fluorescence; series mostly up to 45.8 µM; activity change, negative = inhibition: at the top concentration
Method in brief: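 Primary human omental fibroblast/mesothelial 3D culture pre-formed 48 h. SKOV3ip1-GFP cells added with compounds (0.36-46 umol/L), incubated 2 h RT/16 h 37 C, fixed; GFP cells quantified at 488/509 nm.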

Activity change, negative = inhibition, inactive:
CC1(C(=O)Nc2cccc(C(F)(F)F)c2)Cc2ccccc2C(=O)O1 (configuration not stated) 9.54%, Cc1c(C(=O)Nc2ccc(Br)cc2F)oc2ccc(S(=O)(=O)N3CCCCC3)cc12 1.66%, CC(=O)c1ccc(NC(=O)CN(C)S(=O)(=O)c2cc3c(cc2C)NC(=O)CO3)cc1 -0.721%, CC1CCN(CC(=O)N2CCCc3c2c(=O)oc2ccc(OCc4ccccc4)cc32)CC1 6.58%, CCN1CCC(N(Cc2ccc(F)cc2)C(=O)Nc2cc(C)ccc2C)CC1 -14%, CCOc1ccccc1CNc1ncnc2onc(-c3ccc(F)cc3)c12 3.45%, O=C(CN1C(=O)C2CCCCN2c2ccc(C(=O)N3CCCC3)cc21)NCc1ccc(F)cc1 (configuration not stated) 8.07%, Cc1nc(N2CCOCC2)c2c(C(=O)N3CCN(c4cc(Cl)ccc4C)CC3)c(C)oc2n1 -1.12%, CCOc1c(CC2C(=O)Nc3ccc(Br)cc32)cccc1OC (configuration not stated) -24.1%, COC(=O)c1ccc(C2CC(=O)Nc3c2c(C)nn3-c2nc(C)cc(C)n2)cc1 (configuration not stated) 0.622%, CC1CCCCN1C(=O)CSc1nc2ccccc2nc1Cc1ccccc1 (configuration not stated) -24.1%, COc1ccc(-n2cc(C(=O)NCCc3ccc(C)cc3)c3ccccc3c2=O)cc1 0.866%, CCOC(=O)c1c(S(=O)(=O)N2CCC(C(=O)Nc3ccc(C)cn3)CC2)c(C)n(C)c1C 7.04%, COc1cc(NC(=O)Cn2c(=O)n(Cc3ccccc3)c(=O)c3oc4ccccc4c32)cc(OC)c1 4.08%, COc1ccc(CNC(=O)c2ccc3c(c2)N=C(C)c2c(C)ccc(C)c2S3)cc1 -1.31%, CCN(CC)c1ccc(NC(=O)CN2CCN(S(=O)(=O)c3ccc(C(C)C)cc3)CC2)cc1 4.71%, O=C(Cn1ccc2cc(S(=O)(=O)N3CCCC3)ccc21)NCc1ccc(Cl)cc1 1.72%, Cc1cc(C)cc(NC(=O)CC(C)n2nc(C)cc2C)c1 (configuration not stated) -29.4%, Cc1ccc(CNC(=O)c2oc3ccc(S(=O)(=O)N4CCCC(C)C4)cc3c2C)cc1 (configuration not stated) -1.62%, O=c1[nH]c(=O)n([C@H]2C[C@@H](O)[C@@H](CO)O2)cc1F 0.352%, CCOc1ccc(CNC(=O)Cn2nc(C)c3nn(-c4ccc(Cl)cc4)c(C)c3c2=O)cc1 -13.7%, CNC(=O)c1ccc(Nc2cc(Nc3ccccc3S(=O)(=O)C(C)C)c3cc[nH]c3n2)nc1 -1.56%, COc1ccc(CCNS(=O)(=O)c2ccc3c(c2)c(=O)n(C)c(=O)n3C)cc1OC -1.45%, CCc1ccc(NC(=O)CC2C(=O)N(c3cccc(C)c3)C(=O)N2Cc2cccc(OC)c2)cc1 (configuration not stated) -6.97%, Cc1cc(Cl)ccc1OCCCC(=O)NO 6.35%, Cc1ccc(NC(=O)CCCc2nnc3n(C)c(=O)c4sccc4n23)cc1C 26.6%, Cc1ccc(NC(=O)c2nc(S(C)(=O)=O)ncc2N(Cc2cccc(F)c2)Cc2ccco2)cc1C -14.2%, CCc1nn(CC(=O)NCc2ccco2)c(=O)c2cc3cc(F)ccc3n12 -5.37%, Cc1ccc(Cl)cc1-n1c(=O)c2sc3ccccc3c2n(CC(=O)NC2CCCC2)c1=O -6.77%, Cc1ccc(CCNC(=O)C2COc3ccccc3C2)cc1 (configuration not stated) -4.04%, Cc1ccc(S(=O)(=O)c2cn(C)c3cc(N4CCOCC4)c(F)cc3c2=O)c(C)c1 7.54%, Oc1c(C(c2ccc(F)cc2)N2CCCC2)sc2nc(-c3ccco3)nn12 (configuration not stated) 5.49%, Cc1ccc(CCNC(=O)Cn2ncc3c([nH]c4ccccc43)c2=O)cc1 -2.09%, Cc1cc(C)n(-c2nc3cc(Cl)ccc3nc2N2CCN(c3cccc(C)c3C)CC2)n1 3.14%, COc1ccc(NC(=O)N2CCC(CN3CCCC3)CC2)c(OC)c1 -8.59%, Clc1ccc(-c2ccc(CNCCSc3nnnn3-c3ccccc3)o2)cc1 -19%, COC(=O)c1ccccc1NC(=O)CSc1cc(-c2ccccc2)nc(C)n1 -3.58%, CCCCCN1C(C(=O)c2ccccc2)=C(NC(=O)c2ccc(OC)c(OC)c2)c2ccccc2S1(=O)=O -2.04%, COc1ccc(C)cc1NC(=O)CSc1nc(=O)n(Cc2cccnc2)c2c1CCC2 -2.66%, Clc1cccc(-n2ncc3c(NCCC4=CCCCC4)ncnc32)c1 -3.88%, COc1ccc(OC)c(C(=O)CN2C(=O)N(c3cc(C)cc(C)c3)S(=O)(=O)c3ccccc32)c1 -17.7%, CC(C)(C)OC(=O)N1CCC(c2c(C(=O)NCCN3CCOCC3)cnn2-c2cccc(F)c2)CC1 0.438%, CCN1CCN(c2oc(-c3ccc(COc4ccc(OC)cc4)o3)nc2C#N)CC1 -25.4%, COc1ccc(C2(CNC(=O)C(=O)Nc3ccc(C)c(Cl)c3)CCCC2)cc1OC -0.475%, COc1ccc(OC)c(NC(=O)Nc2cccc(OCc3cc(=O)n4cc(C)ccc4n3)c2)c1 18.9%, CC(NC(=O)c1cccc(Nc2nc3ccccc3n3nnnc23)c1)c1ccccc1 (configuration not stated) -7.58%, CS(=O)(=O)c1ccc(-c2cnc(N)c(C(=O)Nc3ccccc3)n2)cc1 13.1%, O=C(CSc1nc2c(c(=O)[nH]1)CCC2)Nc1cccc(O)c1 7.04%, COc1ccc(NC(=O)C2CCN(c3nc4ccccc4[nH]3)CC2)cc1OC 3.21%, NS(=O)(=O)c1cc(Cl)c(Cl)c(S(N)(=O)=O)c1 4.2%, Cc1ccc(NC(=O)CSc2nnc(C)s2)c(C)c1 -0.314%, CCCCN1C(=O)C(NC(=O)c2ccc(C(C)(C)C)cc2)(C(F)(F)F)C(C(=O)OC)=C1C (configuration not stated) 3.89%, COc1ccc(-c2nc(SCC(=O)NCc3nc4ccccc4n3C)n3[nH]c(=O)cc3n2)cc1 8.89%, Cc1ccc(S(=O)(=O)NCCc2nnc3ccc(SCc4cccc(F)c4)nn23)cc1 -4.96%, COc1ccc(-n2nnnc2C2CCN(S(=O)(=O)c3cc(Cl)ccc3OC)CC2)cc1 -7.73%, COc1cc(NC(=O)c2c(C)nn(-c3ccc(F)cc3)c2-n2cccc2)cc(OC)c1 -1.31%, Cc1ccc(N2CCN(c3ncnc4onc(-c5ccc(F)cc5)c34)CC2)c(C)c1 8.23%, CCn1c(=O)c2sccc2n2c(CCCC(=O)Nc3ccc(C)cc3)nnc12 -0.741%, CCOc1ccc(OCC)c(Nc2nc3ccccc3n3nnnc23)c1 -1.55%, Cc1ccc(Nc2c(-c3ccco3)nc3ccc(C)cn23)cc1 -0.347%, COc1ccc(-c2nc3ccccc3o2)cc1NC(=O)c1ccc(-c2ccc(C)c(Cl)c2)o1 4.39%, COc1cccc(CNC(=O)c2ccc3oc(=O)n(Cc4ccccc4)c3c2)c1 -18.9%, COc1ccc(NC(=O)c2c(NC(=O)c3cccc(C)c3)sc3c2CCC3)cc1 19.6%, COc1ccccc1Nc1ncc2c(n1)CCN(CC(C)C)C2 -3.5%, COc1ccc(NC(=O)CSC2=Nc3ccccc3C3=NC(Cc4ccccc4)C(=O)N23)cc1 (configuration not stated) 0.846%, Cc1cccc(-n2nnc(-c3nc(-c4cccs4)no3)c2N)c1C -11.9%, O=C(CN1C=NS(=O)(=O)c2ccccc21)Nc1ccc(Br)cc1 -7.28%, Cc1cccc(-c2nc(-c3ccc4c(c3)[nH]c(=O)n4C)no2)c1 8.72%, COc1cc(C)c(S(=O)(=O)Nc2cccc(-c3ccc(N4CCCC4)nn3)c2)cc1C -1.44%

outcome, inactive:
CCCNC(=O)CN1C(=O)COc2ccc(S(=O)(=O)N3CCCC3)cc21, COc1ccc(CNC(=O)C2CCCCN2S(=O)(=O)c2ccc(F)cc2)cc1 (configuration not stated), CCOc1ccc(N2C(=O)c3[nH]nc(-c4ccccc4)c3C2c2ccc(O)c(OC)c2)cc1 (configuration not stated), O=C(Nc1ccc(S(=O)(=O)Nc2ncccn2)cc1)c1cccc(Cl)c1, CCn1c(SC)nc2c([nH]c3ccccc32)c1=O, O=C(Nc1ccc(F)cc1)C1CCN(c2nc3ccccc3nc2C(F)(F)F)CC1, COc1ccc(-c2noc(CC(=O)N(C)c3ccccc3F)n2)cc1, Cc1cc(-c2ccc(S(=O)(=O)Nc3ccccc3C)cc2)on1, COc1ccc(NC(=O)C2=C(C)Nc3nc(SCc4ccc(C)cc4C)nn3C2c2cccc(OC)c2OC)cc1 (configuration not stated), Cc1oc2ncnc(N3CCCCC3)c2c1C(=O)NCC1CCN(Cc2ccccc2F)CC1, COc1ccccc1NC(=O)c1sc2nc(-c3cc4cc(Cl)ccc4oc3=O)[nH]c(=O)c2c1C, COc1cc(-c2ccno2)ccc1S(=O)(=O)N1CCN(c2cccc(Cl)c2)CC1, Cc1[nH]c(=O)[nH]c(=O)c1S(=O)(=O)Nc1cccc(Cl)c1C, COc1ccc(OC)c(NC(=O)Cn2nc3c(cc2=O)CCCC3)c1, NS(=O)(=O)c1ccc(NC(=O)c2cc(-c3cccs3)nc3ccccc23)cc1, COc1ccc(N2CCN(c3ncnc4c3nc3n4CCCCC3)CC2)cc1, COc1ccccc1CNS(=O)(=O)c1c(C(=O)N2CCC(C)CC2)c(C)n(C)c1C, Cc1ccc2c(c1)-c1onc(C(=O)N3CCN(c4cc(C)ccc4C)CC3)c1CO2, O=C(C1CCCN(S(=O)(=O)c2cccc3nonc23)C1)N1CCN(c2ccccc2F)CC1 (configuration not stated), O=C(CCn1c(=O)c2cccn2c2ccc(F)cc21)NCCc1ccc(Cl)cc1, CC(=O)c1ccc(N2C(=O)N(Cc3ccc(F)cc3)c3ccccc3S2(=O)=O)cc1, CCN(CC)S(=O)(=O)c1nnc(NC(=O)COc2ccccc2)s1, Cc1cc(O)c(C(c2ccc(F)cc2)N2CCN(c3ccccc3)CC2)c(=O)n1Cc1ccco1 (configuration not stated), CCN(C(=O)c1cc2c(=O)oc3ccccc3c2s1)c1cccc(C(F)(F)F)c1, COc1ccc(CC(=O)Nc2c(C(=O)N3CCN(c4ccccc4F)CC3)oc3ccccc23)cc1OC, Cc1ccccc1CNC(=O)CCCn1ncn2c(cc3occc32)c1=O, CCN1C(=O)c2ccccc2S(=O)c2ccc(C(=O)N3CCN(c4ccc(F)cc4)CC3)cc21 (configuration not stated), Cc1cc(F)ccc1NC(=O)CCS(=O)(=O)c1cccc2nsnc12
